Test results published in PMC4336329 (PLoS ONE, 2015).
The campaign covered roughly 310,000 compounds. About 2,200 (0.71%) showed an effect of 50% or more. The effect is printed as a negative number. The list shows a part of the results.

target: human ether-à-go-go-related gene (hERG) potassium channel (human, UniProt Q12809); test: primary screen, population patch clamp on CHO cells stably expressing hERG
Sequence (Q12809 whole entry, looked up): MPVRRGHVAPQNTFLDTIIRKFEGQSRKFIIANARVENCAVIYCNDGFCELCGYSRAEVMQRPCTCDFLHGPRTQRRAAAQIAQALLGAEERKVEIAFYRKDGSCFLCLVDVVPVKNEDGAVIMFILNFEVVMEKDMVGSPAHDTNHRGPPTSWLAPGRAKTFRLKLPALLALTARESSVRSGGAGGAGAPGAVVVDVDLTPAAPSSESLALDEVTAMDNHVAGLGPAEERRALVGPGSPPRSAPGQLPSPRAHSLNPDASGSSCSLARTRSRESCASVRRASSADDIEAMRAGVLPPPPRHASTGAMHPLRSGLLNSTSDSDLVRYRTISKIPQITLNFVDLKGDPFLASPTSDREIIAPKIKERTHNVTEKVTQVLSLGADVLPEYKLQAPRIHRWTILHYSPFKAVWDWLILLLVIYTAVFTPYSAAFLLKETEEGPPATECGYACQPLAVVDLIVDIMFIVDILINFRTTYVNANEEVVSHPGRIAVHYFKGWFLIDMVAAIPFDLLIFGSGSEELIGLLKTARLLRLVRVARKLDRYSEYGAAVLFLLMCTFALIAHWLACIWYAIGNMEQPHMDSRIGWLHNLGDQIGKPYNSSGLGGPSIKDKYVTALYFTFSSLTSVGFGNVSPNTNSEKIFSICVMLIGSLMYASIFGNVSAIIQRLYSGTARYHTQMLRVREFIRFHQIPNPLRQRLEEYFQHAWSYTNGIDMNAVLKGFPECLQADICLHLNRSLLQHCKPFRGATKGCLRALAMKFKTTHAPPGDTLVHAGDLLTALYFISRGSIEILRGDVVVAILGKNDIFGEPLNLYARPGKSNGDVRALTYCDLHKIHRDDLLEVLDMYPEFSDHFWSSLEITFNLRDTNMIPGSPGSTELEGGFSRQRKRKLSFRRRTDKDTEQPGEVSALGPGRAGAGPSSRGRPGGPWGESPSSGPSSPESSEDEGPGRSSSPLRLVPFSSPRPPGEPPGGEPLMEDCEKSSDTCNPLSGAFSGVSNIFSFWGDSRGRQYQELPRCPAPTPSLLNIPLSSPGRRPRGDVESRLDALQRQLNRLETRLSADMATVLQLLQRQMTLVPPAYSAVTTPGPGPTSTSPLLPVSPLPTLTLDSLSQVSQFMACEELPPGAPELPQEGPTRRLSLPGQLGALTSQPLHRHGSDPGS

SMILES | hERG current change (%, negative = inhibition) at 1uM [%]
COc1ccc(Oc2ccc(S(=O)(=O)N3CCCCC3)cc2S(=O)(=O)N2CCCCC2)cc1 | 9.35
NC(=O)c1ccccc1NS(=O)(=O)Cc1ccccc1 | 14.2
Cc1cccc(OCC(=O)O/N=C(\N)c2ccc(Br)cc2)c1 | 9.06
CCN(CC)c1ccc(/C=N/N2CCOCC2)c(O)c1 | 11.5
CCn1c(=O)c(C(=O)NCc2ccc(OC)c(OC)c2)c(O)c2ccccc21 | 13.9
O=C1C2C3C=CC(C3)C2C(=O)N1CNc1ccc(O)cc1 (centres unmarked) | 0.288
Cc1noc(C)c1-c1nc(CSc2ccccc2)no1 | 7.31
CN(C)S(=O)(=O)c1ccc(NC(=O)c2ccc3ncsc3c2)cc1 | 2.55
O=C(CN1CC=C(c2ccccc2)CC1)NC(=O)NCc1ccco1 | 13.9
CC(Sc1nnc(-c2ccncc2)n1C)C(=O)NCC1CCCO1 (centres unmarked) | 9.37
COc1ccc(C2c3[nH]c4ccccc4c3C[C@H]3C(=O)N(CCCO)CC(=O)N23)c(OC)c1 (some centres unmarked) | 17.3
CCOC(=O)c1cc(CC)sc1NC(=O)COC | 7.4
CCOC(=O)C1CCCN(Cc2cc(Br)ccc2OC)C1 (centres unmarked) | -0.882
CC1CCN(S(=O)(=O)c2cccc(C(=O)NC3CCCC3)c2)CC1 | -20.5
COC(=O)C1=C(C(=O)OC)[C@@H]2N(C)c3ccccc3[C@@]23C[C@@H](CO)N(C(=O)c2cccs2)C3=N1 | 13.7
COc1ccc(S(=O)(=O)N2CCN(C(=O)NCc3ccccc3)CC2)cc1 | -2.47
COc1ccccc1CNC(=O)CCCn1nc(C)n2ccnc2c1=O | 13.1
O=C(/C=C/c1c(Cl)cccc1Cl)NCCc1ccccc1 | 9.36
CC1CCC[C@H](O)CCCCCc2cc(O)cc(O)c2C(=O)O1 (some centres unmarked) | 14.4

SMILES | hERG current change (%, negative = inhibition) at 1uM [%]
COc1ccc([N+](=O)[O-])cc1NC(=O)CSCc1ccccc1 | 13.5
O=C(O)c1ccccc1-c1ccccc1C(=O)Nc1cccc(-c2nc3ccccc3o2)c1 | 3.28
Cc1ccc2c(C(=O)CSc3ccccc3)c(C)[nH]c2c1 | 1.86
O=C(N/N=C/C=C/c1ccccc1)c1ccccc1Br | 13.9
CCOc1ccc(NC(=O)CCc2nnc3ccc(N4CCC(C)CC4)nn23)cc1 | 6.13
Cc1ccc(CC(=O)Nc2nc3ccccc3[nH]2)cc1C | 6.69
O=S(=O)(c1ccc(Cl)cc1)N1CCN=C1SCc1ccc(Cl)c(Cl)c1 | 7.69
CC(NC(=O)c1ccc(NC(=O)CC2SC(N3CCCC3)=NC2=O)cc1)c1ccc(F)cc1 (centres unmarked) | 16.3
COc1ccc(Cl)cc1C(=O)NCCS(=O)(=O)N1CCN(c2ccccc2F)CC1 | 5.03
O=C(CSc1nccc(=O)[nH]1)c1ccco1 | -1.38
CCC1CCCCN1CCCNC(=O)c1ccc2c(c1)NC(=O)CN2C (centres unmarked) | 16
COc1ccccc1N(C(=O)CCl)c1cn(C(C)=O)c2ccccc12 | 5.94
COC(=O)C(O)(NC(=O)c1ccncc1)C(F)(F)F (centres unmarked) | 16.1
FC(F)(F)COc1nc(N/N=C/c2cccnc2)nc(N2CCCCC2c2ccccn2)n1 (centres unmarked) | -15.9
Cc1ccccc1C(=O)Oc1cc(N)n(S(C)(=O)=O)n1 | 12.3
O=C(CSc1ccc(Cl)cc1)N/N=C/c1cccnc1 | -2.15
CCOC(=O)N1CCC(N2Cc3cccc(C(=O)Nc4cc(F)ccc4F)c3C2=O)CC1 | -2.63
O=c1c2sc3nc(N4CCOCC4)c4c(c3c2ncn1CCc1ccccc1)CCCC4 | -6.07
Cc1cc(NC(=O)CSc2nnc(C(C)N(C)C)n2-c2ccc(F)cc2)no1 (centres unmarked) | 23.3

SMILES | hERG current change (%, negative = inhibition) at 1uM [%]
COc1ccc(C)cc1NC(=O)c1ccccc1NS(=O)(=O)c1cccc2cccnc12 | 15.3
C/C(Cl)=C/CSc1nc2c(c(=O)[nH]c(=O)n2C)n1C(C)C | 5.07
Cc1nnc(NC(=O)c2c(-c3ccccc3)noc2C)s1 | 10.9
COC(=O)c1c(C)[nH]c(C=Nc2ccc(OC)cc2)c1C | 8.46
COc1ccc(OCC(=O)Nc2ccc(C)c(S(=O)(=O)N(C)C)c2)cc1 | 3.4
COc1ccc(CCNC(=O)COc2cc(O)c3c(c2)OC(C)(C)CC3=O)cc1OC | -3.34
CCN(CC)CCCNC(=O)CNC(=S)N(CCCN1CCOCC1)Cc1cccs1 | 6.65
COc1ccc2[nH]c3c(=O)n(CCCCC(=O)N4CCC(C(N)=O)CC4)c(=S)[nH]c3c2c1 | 6.66
O=C(/C=C/c1ccccc1)Nc1cc(C(=O)O)cc(C(=O)O)c1 | -2.97
CC(=O)Nc1ccc(NC(=O)CSc2nc3[nH]ncc3c(=O)n2-c2ccccc2)cc1 | 30.3
CCOC(=O)c1cc(-c2ccccc2)sc1NC(=S)Nc1cccc(C)n1 | 11.4
CCCCn1c(N)c(N(CC)C(=O)c2cc(C)cc(C)c2)c(=O)[nH]c1=O | 13.7
CCn1c(SCC(=O)Nc2nc3ccccc3s2)nc2c(c1=O)SC(C)C2 (centres unmarked) | 3.43
Cc1ccc(NS(=O)(=O)c2cc(C(=O)NCc3ccncc3)ccc2C)cc1 | 4.21
NC(=O)c1c(NC(=O)C(=O)NCCCN2CCOCC2)sc2c1CCCC2 | 6.61
CCOc1ccc(OCCSc2ccc(S(=O)(=O)N3CCN(C)CC3)cn2)cc1 | 5.27
COc1ccccc1-c1cc(C(=O)N2CCN(c3ccccc3OC)CC2)no1 | 11.2
COc1ccc(S(=O)(=O)N2CCC(C(=O)N[C@@H](C)C(=O)NCc3ccc(F)cc3)CC2)cc1 | 18.8
